This is one part of the list. At the low end of the ranking the order means little.

This test deals with T1, GST-Rok (full length) (UniProt O34857).
T1 sequence: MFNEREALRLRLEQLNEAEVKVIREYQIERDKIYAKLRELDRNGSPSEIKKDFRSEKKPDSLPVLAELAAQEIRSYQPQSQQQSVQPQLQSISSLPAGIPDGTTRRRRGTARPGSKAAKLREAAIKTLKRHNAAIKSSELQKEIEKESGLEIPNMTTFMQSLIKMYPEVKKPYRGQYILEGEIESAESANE
As to the kind of experiment: protein binding microarray.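 Note: rank score from −0.5 (least bound) to 0.5 (best bound).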 The conditions noted are these: Rok is a gene silencer of Bacillus subtilis; high values mean tight binding; most listed sequences are background and not binding sites; double strand, one strand shown.
In turn, AACATAAT returned a binding signal of 0.219 E-score.
GCCTGCAC registered a binding signal of -0.258 E-score.
AACGGGAG came in with a binding signal of -0.141 E-score.
AATCCCAC gave a binding signal of -0.106 E-score.
Regarding AAGCTACG, the binding signal came to 0.0885 E-score.
For CTTCACTA, the binding signal worked out at 0.0662 E-score.
For AGGCACAA, the binding signal stood at 0.0173 E-score.
The figure for ACTGGGCT is -0.0701 E-score; for CACCACGC it is -0.207 E-score.
For the sequence CCGAACCC, the binding signal is -0.224 E-score.
With CCAAAACA, the binding signal stood at 0.0981 E-score.
GGAACCCC: the binding signal was -0.34 E-score.
In turn, AGGATTCC came in with a binding signal of -0.156 E-score.
Sequence ATTCAGCG showed a binding signal of 0.0186 E-score.
Take CATAGCGC: the binding signal amounted to 0.00734 E-score.
Take GTGTACTA: the binding signal worked out at 0.217 E-score.
Sequence ACGGAAGG had a binding signal of -0.275 E-score.
For the sequence ACATACAG, the binding signal was determined as 0.123 E-score.
For CGCATTTC, the binding signal is -0.0281 E-score.
TTATTAAA came in with a binding signal of 0.168 E-score.
In turn, CAACGTGC came in with a binding signal of -0.0926 E-score.
The figure for GCACATGA is -0.00782 E-score; for CCCTATTC it is -0.194 E-score; for CAATTTGA it is 0.0216 E-score.
For the sequence GAATTGTC, the binding signal was -0.0803 E-score.
In turn, GAGACTAA returned a binding signal of -0.0972 E-score.
For the sequence TAGAGTCA, the binding signal is -0.0981 E-score.
On to AGCGTATC, for which the binding signal is -0.0363 E-score.
The figure for TCCGGCCA is -0.0782 E-score.
In the case of CGTCGTAC, the binding signal came out at 0.00676 E-score.
The figure for CGGCCACG is -0.354 E-score; for AGATGCTG it is -0.0201 E-score; for AGTCGTGG it is -0.0529 E-score.
Consider GCTACCAA, for which the binding signal was found to be 0.324 E-score.
Consider ACACCTAT, for which the binding signal was 0.213 E-score.
Sequence GTAGCCAC registered a binding signal of -0.144 E-score.
In turn, ACTCGAGG displayed a binding signal of -0.0396 E-score.
The figure for ATCTGGGG is -0.299 E-score; for AAACACAC it is 0.107 E-score.
In the case of AACGTTCG, the binding signal is -0.0966 E-score.
The figure for ATCGGACC is -0.0937 E-score; for ATGCCTAG it is 0.0499 E-score.
The figure for CAAGAACA is -0.0847 E-score; for CCCGCACG it is -0.329 E-score; for TACATGGA it is 0.135 E-score.
Sequence CCCTGAAC gave a binding signal of -0.279 E-score.
The sequence ACCGCTCG returned a binding signal of -0.107 E-score.
CCGGTGAA returned a binding signal of -0.229 E-score.
The figure for CAATTTGC is -0.0672 E-score; for GAGTTTGC it is 0.0867 E-score; for TGAAAAAA it is 0.0222 E-score.
In the case of GAAGCATA, the binding signal was -0.0777 E-score.
In turn, AGGGAAAA showed a binding signal of -0.061 E-score.
CCCACGCC showed a binding signal of -0.292 E-score.
Turning to ATTGCGTC, the binding signal was -0.051 E-score.
On to ACTCCGTA, for which the binding signal stood at 0.0187 E-score.
AAATATTT displayed a binding signal of 0.337 E-score.
Consider ACAGCCGT, for which the binding signal was -0.0492 E-score.
For the sequence AGGTACGG, the binding signal is -0.101 E-score.
AATTAGCT: the binding signal amounted to 0.275 E-score.
ATTGTGCC: the binding signal worked out at 0.0477 E-score.
As to AATCGTTA, the binding signal was determined as 0.0165 E-score.
The figure for GTCTATGA is -0.128 E-score; for AGGTGTCA it is -0.0859 E-score; for GATGTTCA it is 0.0183 E-score.
CCATCAGA showed a binding signal of -0.019 E-score.
GCCTTCAA returned a binding signal of -0.171 E-score.
Regarding CGTTTACA, the binding signal came out at 0.0441 E-score.
On to AATATTCA, for which the binding signal amounted to 0.282 E-score.
Sequence ACTAGGCA had a binding signal of 0.185 E-score.
Regarding CACACGAG, the binding signal is -0.0272 E-score.
GCGCCCGC showed a binding signal of -0.34 E-score.
Turning to ATTACACG, the binding signal amounted to 0.062 E-score.
The figure for GTAGTCTA is 0.175 E-score.
Sequence AAGACAGG came in with a binding signal of -0.161 E-score.
AAATGCCT: the binding signal was -0.15 E-score.
ACGAGAAG displayed a binding signal of -0.146 E-score.
The figure for CTTGCCCA is -0.116 E-score.
The sequence ATAATACA yielded a binding signal of 0.237 E-score.
As for AATATATT, the binding signal worked out at 0.41 E-score.
Turning to ATGTTGAC, the binding signal is -0.0855 E-score.
AGCCTATA: the binding signal came to 0.106 E-score.
Consider TGTCGAAA, for which the binding signal is 0.187 E-score.
AGAATCAG registered a binding signal of 0.202 E-score.
The sequence CGCAGAAC registered a binding signal of -0.0856 E-score.
The figure for CTCGTTCC is -0.0919 E-score; for AGTTGCAT it is 0.213 E-score; for ATCGGGGA it is -0.154 E-score.
For the sequence AGCTAGTC, the binding signal stood at 0.078 E-score.
In turn, TCGTATAA registered a binding signal of 0.179 E-score.
The figure for GCCCTAAA is -0.182 E-score.
The figure for AATTCATC is 0.203 E-score.
With ACGGTGCT, the binding signal is -0.279 E-score.
The figure for GCGATATA is 0.342 E-score.
The figure for GCTGCTGA is -0.177 E-score; for GTAGTGTA it is 0.193 E-score; for ACAAAGTC it is -0.142 E-score.
TAATAGAA: the binding signal is 0.274 E-score.
The figure for GGTAGGAA is 0.208 E-score; for ATACAGGC it is 0.0887 E-score; for GCAAGAGA it is -0.0894 E-score.
The figure for CGGTGGCA is -0.155 E-score; for CCTAACAG it is 0.0291 E-score; for GCAACTTA it is 0.225 E-score.
With AGCGTTCA, the binding signal is -0.203 E-score.
Take CACACGCG: the binding signal was -0.148 E-score.
The sequence AATCTACG registered a binding signal of 0.311 E-score.
Sequence ATTACATA gave a binding signal of 0.208 E-score.
Turning to ATTTGTGA, the binding signal stood at 0.205 E-score.
CTGCATAA displayed a binding signal of 0.224 E-score.
On to CGGGCGAC, for which the binding signal is -0.41 E-score.
The figure for AACAAAAG is 0.0913 E-score.
The figure for GTATGTAA is 0.321 E-score; for CCTGATCA it is 0.065 E-score.
AACGAGCA returned a binding signal of -0.0882 E-score.
For CAAAAGGG, the binding signal is -0.234 E-score.
Sequence GACGTTGC showed a binding signal of -0.104 E-score.
In the case of AGCATAGG, the binding signal stood at 0.128 E-score.
For the sequence ACATTCAT, the binding signal was 0.217 E-score.
The sequence TCATTAAA came in with a binding signal of 0.0589 E-score.
In turn, CAGCGGAA yielded a binding signal of 0.0135 E-score.
Turning to ATCATTGA, the binding signal was found to be 0.1 E-score.
GACGGACC: the binding signal was -0.24 E-score.
As for CAATTAGC, the binding signal was -0.0535 E-score.
The figure for AACCCTCA is -0.231 E-score.
The sequence TCGGGACA came in with a binding signal of -0.143 E-score.
The figure for TGCTAGAA is 0.387 E-score; for AAGTATCT it is 0.297 E-score.
CATATTGG came in with a binding signal of -0.0429 E-score.
Take ATTCCGCG: the binding signal was found to be 0.129 E-score.
Consider CGATTGTC, for which the binding signal is -0.0643 E-score.
CCGCACGA: the binding signal was -0.246 E-score.
Take GCTCATAC: the binding signal is -0.052 E-score.
As for AGGGGTTG, the binding signal was -0.383 E-score.
The figure for AATTATTG is 0.239 E-score.
GTATGTCA showed a binding signal of 0.125 E-score.
The figure for GGACACCC is -0.245 E-score; for CTACAGAA it is 0.152 E-score; for GTAGCCGA it is 0.0377 E-score.
For the sequence TCCTACGA, the binding signal came out at 0.114 E-score.
Consider GCGGAATA, for which the binding signal is 0.179 E-score.
The figure for AAGGTGGG is -0.188 E-score; for AATGTTGC it is 0.0756 E-score.
With CACTACCA, the binding signal amounted to 0.221 E-score.
For ATCCTAAA, the binding signal amounted to 0.0823 E-score.
The figure for GGCCTCGA is -0.268 E-score; for AATAGATA it is 0.262 E-score.
With ATCGTTGC, the binding signal worked out at 0.139 E-score.
ATGCTATA displayed a binding signal of 0.339 E-score.
In the case of ATGAGAAC, the binding signal is -0.0393 E-score.
Take CGCGGGTA: the binding signal was determined as 0.0702 E-score.
Sequence AAGACGGT returned a binding signal of -0.057 E-score.
As for ACCCGCAC, the binding signal is -0.148 E-score.
In the case of AGAGGCTC, the binding signal is -0.231 E-score.
ACAGTGGC: the binding signal is -0.0538 E-score.
Sequence AACCACCT had a binding signal of -0.126 E-score.
The figure for ATACTACC is 0.36 E-score; for ACATCTCC it is 0.0372 E-score; for GGTCAGAC it is -0.135 E-score.
Turning to TTCTACAA, the binding signal amounted to 0.392 E-score.
The figure for ACTCACGC is -0.154 E-score.
As to CCTACCAG, the binding signal was found to be 0.0237 E-score.
As for ATCGGCAC, the binding signal was -0.222 E-score.
On to GAGACCGA, for which the binding signal is -0.26 E-score.
GGGTTCAC showed a binding signal of -0.16 E-score.
For AGTCAACC, the binding signal is -0.203 E-score.
The figure for CAGAGATA is 0.188 E-score; for AATCCCCT it is -0.174 E-score; for AGGAAGAG it is -0.228 E-score.
Turning to AGCCCCAT, the binding signal is -0.213 E-score.
Sequence AGAAGTAG had a binding signal of 0.219 E-score.
In the case of ATATCTTC, the binding signal is 0.262 E-score.

For the origin of these results see PMC6212790.
